The source gives no read counts; variants with many changes may rest on few reads.
B1: CPEB3 Ribozyme (parent)
chain: UAACAGGGGGCCACAGCAGAAGCGUUCACGUCGCAGCCCCUGUCAGAUUCUGGUGAAUCUGCGAAUUCUGCUGUAUAUCUC

Variants of: B1
Assay: self-cleavage, relative activity (ratio to wild type); higher = more cleavage; in vitro, sequencing
Procedure, shortened: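 After error-prone PCR and barcoding, CPEB3 ribozyme mutant libraries were transcribed with T7 RNA polymerase at 37°C for 5 hours, then given 15 min with DNase I before an EDTA stop, and they cleaved during both steps. Reverse transcription with template switching preceded Illumina sequencing. Relative activity divides a variant's cleaved/total read fraction by the unmutated ribozyme's. At least 5 reads were required per variant, and three batches were averaged.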

Row | Variant | self-cleavage
1 | G6U G24U G30A U51A U74C | 0.06
2 | G6U G42A U54C U69C | 0.19
3 | G6U G63C U67C | 0.15
4 | G6U U25A U54A | 0.25
5 | G6U U26C A35U U48C C62U U76C | 0.05
6 | G6U U26C A65U | 0.2
7 | G6U U31A A56G U69C | 0.11
8 | G6U U31A G33U A77G | 0.08
9 | G6U U31C A45G U54A | 0.26
10 | G6U U31C A65G | 0.04
11 | G6U U41C A64U U66C | 0.14
12 | G6U U43A U51A C62A C68U | 0.07
13 | G6U U43C U51A U54C U80C | 0.16
14 | G6U U48A A64U | 0.1
15 | G6U U48C U49C U60C | 0.23
16 | G6U U48C U72A | 0.27
17 | G6U U49G A65G U67C G73A | 0.06
18 | G6U U51A U69G | 0.13
19 | G6U U51C A65G U67G | 0.09
20 | G6U U54C G61A | 0.4
21 | G6U U58C U60C U69A U80C | 0.04

Row | Variant | self-cleavage
22 | G6U U60A U72C U80C | 0.33
23 | G6U U74C U78C | 0.46
24 | G7A A13G A15G U26C U76A | 0.41
25 | G7A A13G A15G U26C U78C U80C | 0.25
26 | G7A A13G A28G | 0.07
27 | G7A A13G G19A U41A G63A A75U | 0.04
28 | G7A A13G U25A U67A | 0.13
29 | G7A A13G U51C U54A C79G | 0.51
30 | G7A A13G U67A | 0.07
31 | G7A A13G U72G | 0.06
32 | G7A A13U A15G A20G U25C A57G U78C | 0.13
33 | G7A A13U A28U A35G U41A A57G C62A | 0.05
34 | G7A A13U C32U U43A C59U U74C | 0.21
35 | G7A A13U G24A U26C U80C | 0.06
36 | G7A A13U U31G A35G | 0.09
37 | G7A A13U U41C U51A U74C U80G | 0.11
38 | G7A A13U U60G U74A | 0.06
39 | G7A A13U U69G U76G | 0.04
40 | G7A A15C U51C A56U U60A U66G | 0.05
41 | G7A A15G A21G U41A A56G | 0.03
42 | G7A A15G A28G | 0.34

Row | Variant | self-cleavage
43 | G7A A15G A28U A45U U49A | 0.06
44 | G7A A15G A28U U41A | 0.07
45 | G7A A15G A35C | 0.36
46 | G7A A15G A35G U41C U48C | 0.06
47 | G7A A15G A65G U76A | 0.15
48 | G7A A15G A65G U76C | 0.07
49 | G7A A15G C37G U51C U78C | 0.04
50 | G7A A15U A18G U60C G70A | 0.05
51 | G7A A15U U25C U41C G63U U72A | 0.14
52 | G7A A15U U31C U51A | 0.05
53 | G7A A15U U41A U51A | 0.18
54 | G7A A18C G33A A35U | 0.1
55 | G7A A18G A21U C38A U43C U51A | 0.04
56 | G7A A18G A28U U78C | 0.18
57 | G7A A18G C29U A75G | 0.06
58 | G7A A18G C29U U54A | 0.06
59 | G7A A18G U31A A35G U48C U51A | 0.11
60 | G7A A20G U25C A35G A47G U69C | 0.22
61 | G7A A20G U31A A64U U72A | 0.04
62 | G7A A20G U48A A56C G70A | 0.04
63 | G7A A20G U74C | 0.33

Row | Variant | self-cleavage
64 | G7A A20U A35U | 0.17
65 | G7A A20U C39A U80C | 0.06
66 | G7A A21G C32G U60C C62U A65G U66C | 0.02
67 | G7A A21G C32U C44G A45U U78C | 0.05
68 | G7A A21G C38U U51C U78C | 0.33
69 | G7A A21G U66C U69C U76G | 0
70 | G7A A28G A35U U60C | 0.06
71 | G7A A28G A56C A64U U67C U78C | 0.05
72 | G7A A28G G33A A35G A64G | 0.1
73 | G7A A28G G53A U54A A64G | 0.22
74 | G7A A28G U31C A35U A57G | 0.14
75 | G7A A28G U66C A75G | 0.06
76 | G7A A28G U69C | 0.05
77 | G7A A35C U41C A64G U67C U72C U80C | 0.04
78 | G7A A35C U43C A47U | 0.04
79 | G7A A35G A47G U69C U72A C79U | 0.03
80 | G7A A35U A56G U58C G61A | 0.1
81 | G7A A35U U41A G46C U54C A77C | 0.05
82 | G7A A35U U51C U58A A77U | 0.06
83 | G7A A35U U54C U74A | 0.07
84 | G7A A45C U58C U78C | 0.03

Reference: the RNAGym collection of RNA variant scans (doi:10.1093/nar/gkz1192)
